Data from publication PMC4336329 (PLoS ONE, 2015).
Out of some 310,000 compounds screened, about 2,200 (0.71%) showed an effect of 50% or more. Effects have a minus sign here. This is one part of the list.

molecular target: human ether-à-go-go-related gene (hERG) potassium channel (human, UniProt Q12809); assay: primary screen, population patch clamp on CHO cells stably expressing hERG
Sequence (Q12809 whole entry, looked up): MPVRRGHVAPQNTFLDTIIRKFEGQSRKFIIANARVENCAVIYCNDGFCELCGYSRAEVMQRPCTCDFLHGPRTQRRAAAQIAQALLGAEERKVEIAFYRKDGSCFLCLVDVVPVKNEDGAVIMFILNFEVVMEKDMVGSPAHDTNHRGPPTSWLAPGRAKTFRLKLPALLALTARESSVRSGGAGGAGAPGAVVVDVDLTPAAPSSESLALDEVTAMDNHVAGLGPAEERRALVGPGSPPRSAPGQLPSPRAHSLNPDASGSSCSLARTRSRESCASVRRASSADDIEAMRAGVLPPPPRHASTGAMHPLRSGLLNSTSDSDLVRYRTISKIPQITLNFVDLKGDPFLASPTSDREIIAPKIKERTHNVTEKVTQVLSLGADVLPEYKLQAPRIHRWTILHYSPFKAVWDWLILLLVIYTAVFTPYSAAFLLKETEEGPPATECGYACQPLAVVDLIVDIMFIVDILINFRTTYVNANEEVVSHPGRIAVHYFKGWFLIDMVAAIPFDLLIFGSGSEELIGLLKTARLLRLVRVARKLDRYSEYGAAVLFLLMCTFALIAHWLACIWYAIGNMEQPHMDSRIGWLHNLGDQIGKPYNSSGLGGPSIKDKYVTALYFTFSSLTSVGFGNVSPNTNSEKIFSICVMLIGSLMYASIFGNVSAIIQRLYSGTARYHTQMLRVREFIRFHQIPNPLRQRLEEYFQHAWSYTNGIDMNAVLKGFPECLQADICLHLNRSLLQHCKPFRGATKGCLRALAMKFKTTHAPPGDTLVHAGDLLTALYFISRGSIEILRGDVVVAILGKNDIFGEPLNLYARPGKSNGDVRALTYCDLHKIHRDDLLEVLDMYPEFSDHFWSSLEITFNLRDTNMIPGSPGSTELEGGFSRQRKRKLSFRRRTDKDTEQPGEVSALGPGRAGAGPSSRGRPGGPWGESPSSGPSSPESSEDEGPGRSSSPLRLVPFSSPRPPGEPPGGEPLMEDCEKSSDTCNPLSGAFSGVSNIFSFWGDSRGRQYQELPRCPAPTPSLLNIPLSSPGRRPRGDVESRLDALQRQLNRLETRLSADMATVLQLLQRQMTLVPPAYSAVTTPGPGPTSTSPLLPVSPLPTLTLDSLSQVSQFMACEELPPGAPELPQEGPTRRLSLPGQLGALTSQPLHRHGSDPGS

Question: Which “hERG current change (%, negative = inhibition) at 1uM” value does the source give for `CN(CCC1CCOCC1)C(=O)C1CCC(=O)N(CCc2ccccc2)C1` (stereo not shown) here?
Answer: -3.88%

Question: With `CSc1ccccc1C(=O)N1CCC(CCC(=O)NCc2ccc(F)cc2)CC1` as the compound, how does the “hERG current change (%, negative = inhibition) at 1uM” value read?
Answer: 5.09%

Question: `CCOC(=O)C(NC(=O)Cc1ccccc1)(Nc1cc(C)on1)C(F)(F)F` (stereo not shown) was tested. Which “hERG current change (%, negative = inhibition) at 1uM” value did it give?
Answer: 7.59%

Question: Which “hERG current change (%, negative = inhibition) at 1uM” value does the source give for `O=C(COC(=O)/C=C/c1ccc(F)cc1)Nc1ccccc1-c1ccccc1` here?
Answer: 13.2%

Question: How did the “hERG current change (%, negative = inhibition) at 1uM” value turn out when `Cc1cc(N2C(=O)C3CC=CC(C)C3C2=O)no1` (stereo not shown) was run?
Answer: 7.98%

Question: With `CC(NC(=O)CN1C(=O)NC2(CCCCCC2)C1=O)c1ccccc1Cl` (stereo not shown) as the compound, how does the “hERG current change (%, negative = inhibition) at 1uM” value read?
Answer: 4.85%

Question: With `COc1ccc(/C=C/C2=CCN(C)CC2)cc1.Cl` as the compound, how does the “hERG current change (%, negative = inhibition) at 1uM” value read?
Answer: 2.47%

Question: Which “hERG current change (%, negative = inhibition) at 1uM” value does the source give for `COc1ccc(OC(=O)CN2C(=O)C3C4CCC(C4)C3C2=O)cc1` (stereo not shown) here?
Answer: 12.4%

Question: Which “hERG current change (%, negative = inhibition) at 1uM” value does the source give for `CCn1c(COc2cccc(C)c2)nnc1SCC(=O)Nc1cccc(C(=O)OC)c1` here?
Answer: 13.6%

Question: With `Cn1cc(S(=O)(=O)NCc2cccs2)c(=O)n(C)c1=O` as the compound, how does the “hERG current change (%, negative = inhibition) at 1uM” value read?
Answer: 8.34%

Question: Which “hERG current change (%, negative = inhibition) at 1uM” value does the source give for `O=C(O)c1ccccc1-n1c(-c2ccccc2)cc2c1CCCC2=O` here?
Answer: 9.19%

Question: `S=C(NCc1ccc(Cl)cc1)Nc1ccc(Cl)cc1Cl` was tested. Which “hERG current change (%, negative = inhibition) at 1uM” value did it give?
Answer: 12%

Question: How did the “hERG current change (%, negative = inhibition) at 1uM” value turn out when `COc1ccc(CCNCc2ccccc2F)cc1OC.Cl` was run?
Answer: 7.24%

Question: For `Cc1nc(N2CCN(Cc3ccccc3)CC2)c(C#N)c2c1COC(C)(C)C2`, which “hERG current change (%, negative = inhibition) at 1uM” value is on record?
Answer: 12.7%

Question: For `CCOC(=O)C1CN(S(=O)(=O)c2ccc(C)cc2)c2ccccc2O1` (stereo not shown), which “hERG current change (%, negative = inhibition) at 1uM” value is on record?
Answer: 18.3%

Question: Which “hERG current change (%, negative = inhibition) at 1uM” value does the source give for `COc1cccc(CN2CCc3[nH]c(=S)[nH]c(=O)c3C2)c1` here?
Answer: 7.18%

Question: Which “hERG current change (%, negative = inhibition) at 1uM” value does the source give for `COC(=O)C(Cc1ccc(O)cc1)NC(=O)CCC(=O)Nc1ccc(S(N)(=O)=O)cc1` (stereo not shown) here?
Answer: 7.5%

Question: Which “hERG current change (%, negative = inhibition) at 1uM” value does the source give for `O=C(O)CCC(=O)N1N=C(c2ccc(Br)cc2)CC1c1cccc(Br)c1` (stereo not shown) here?
Answer: 11.3%

Question: With `CN(C)S(=O)(=O)c1cccc(COc2cccnc2[N+](=O)[O-])c1` as the compound, how does the “hERG current change (%, negative = inhibition) at 1uM” value read?
Answer: 3.18%

Question: `COc1ccccc1N(C)S(=O)(=O)c1ccc(C(=O)NC(C)(C)C)cc1` was tested. Which “hERG current change (%, negative = inhibition) at 1uM” value did it give?
Answer: 6.73%

Question: `C/C=C(\C)C(=O)NCCN1C2=NC[C@@H](C)N2C[C@@H]1Cc1ccc(OC)cc1` was tested. Which “hERG current change (%, negative = inhibition) at 1uM” value did it give?
Answer: 11.4%

Question: With `CCCc1nnc(NC(=O)CCC(=O)NC2CCCC2)s1` as the compound, how does the “hERG current change (%, negative = inhibition) at 1uM” value read?
Answer: 13.9%

Question: How did the “hERG current change (%, negative = inhibition) at 1uM” value turn out when `COc1cccc(CN(C(=O)Cc2c[nH]c3ccccc23)C(C(=O)NC2CCCCC2)c2cccs2)c1` (stereo not shown) was run?
Answer: 22.7%

Question: For `COc1cccc(/C=N/c2nc3ccccc3n2C)c1O`, which “hERG current change (%, negative = inhibition) at 1uM” value is on record?
Answer: 11.2%

Question: With `CC1CC(C)CN(C(=O)COC(=O)c2ccc3ncsc3c2)C1` (stereo not shown) as the compound, how does the “hERG current change (%, negative = inhibition) at 1uM” value read?
Answer: -0.416%
